# Data reported in a compilation of properties of binary mixtures (doi:10.1021/je990135o).
# Where “and” joins values, the source holds several entries; their conditions need not be identical. Identical values can stand only once. The densities may have been worked out from excess volumes.
# Test: xn = mol fraction of the nth substance listed
# Conditions: 100 kPa
structure (smiles),measurement,setting,value
CCCCOCCO + CCOC(=O)OCC,mass density,"298.15 K, x2 = 0.1281",897.9 kg/m3
same,mass density,"298.15 K, x2 = 0.188",901.7 kg/m3
same,mass density,"298.15 K, x2 = 0.2375",904.9 kg/m3
same,mass density,"298.15 K, x2 = 0.3051",909.2 kg/m3
same,mass density,"298.15 K, x2 = 0.3957",915.2 kg/m3
same,mass density,"298.15 K, x2 = 0.4851",921.3 kg/m3
same,mass density,"298.15 K, x2 = 0.5123",923.2 kg/m3
same,mass density,"298.15 K, x2 = 0.5654",926.9 kg/m3
same,mass density,"298.15 K, x2 = 0.8141",945.4 kg/m3
same,mass density,"298.15 K, x2 = 0.8928",951.7 kg/m3
same,mass density,"298.15 K, x2 = 0.9265",954.4 kg/m3
CCCCOCCOCCO + CCOC(=O)OCC,mass density,"298.15 K, x2 = 0.088",949.5 kg/m3
same,mass density,"298.15 K, x2 = 0.2932",952.9 kg/m3
same,mass density,"298.15 K, x2 = 0.3666",954.2 kg/m3
same,mass density,"298.15 K, x2 = 0.4433",955.7 kg/m3
same,mass density,"298.15 K, x2 = 0.4507",956.9 kg/m3
same,mass density,"298.15 K, x2 = 0.5249",957.2 kg/m3
same,mass density,"298.15 K, x2 = 0.6202",959.2 kg/m3
same,mass density,"298.15 K, x2 = 0.6668",960.2 kg/m3
same,mass density,"298.15 K, x2 = 0.8246",964 kg/m3
same,mass density,"298.15 K, x2 = 0.8781",965.4 kg/m3
same,mass density,"298.15 K, x2 = 0.9027",966.1 kg/m3
same,mass density,"298.15 K, x2 = 0.9788",968.5 kg/m3
same,mass density,"313.15 K, x2 = 0.088",936.6 kg/m3
same,mass density,"313.15 K, x2 = 0.1518",937.5 kg/m3
same,mass density,"313.15 K, x2 = 0.2932",939.4 kg/m3
same,mass density,"313.15 K, x2 = 0.5071",942.4 kg/m3
same,mass density,"313.15 K, x2 = 0.5249",942.7 kg/m3
same,mass density,"313.15 K, x2 = 0.6668",945 kg/m3
same,mass density,"313.15 K, x2 = 0.7118",945.8 kg/m3
same,mass density,"313.15 K, x2 = 0.7668",946.8 kg/m3
same,mass density,"313.15 K, x2 = 0.8246",948 kg/m3
same,mass density,"313.15 K, x2 = 0.8781",949.2 kg/m3
same,mass density,"313.15 K, x2 = 0.9027",949.7 kg/m3
same,mass density,"313.15 K, x2 = 0.9299",950.4 kg/m3
same,mass density,"313.15 K, x2 = 0.9633",951.3 kg/m3
same,mass density,"313.15 K, x2 = 0.9788",951.7 kg/m3
CCOCCO + CCOC(=O)OCC,mass density,"298.15 K, x2 = 0.0418",927.1 kg/m3
same,mass density,"298.15 K, x2 = 0.1775",933.6 kg/m3
same,mass density,"298.15 K, x2 = 0.252",937 kg/m3
same,mass density,"298.15 K, x2 = 0.311",939.6 kg/m3
same,mass density,"298.15 K, x2 = 0.4085",943.9 kg/m3
same,mass density,"298.15 K, x2 = 0.4827",947.1 kg/m3
same,mass density,"298.15 K, x2 = 0.5248",948.8 kg/m3
same,mass density,"298.15 K, x2 = 0.5889",951.5 kg/m3
same,mass density,"298.15 K, x2 = 0.6474",954 kg/m3
same,mass density,"298.15 K, x2 = 0.7004",956.2 kg/m3
same,mass density,"298.15 K, x2 = 0.7783",959.5 kg/m3
same,mass density,"298.15 K, x2 = 0.8084",960.7 kg/m3
same,mass density,"298.15 K, x2 = 0.9025",964.8 kg/m3
same,mass density,"313.15 K, x2 = 0.0418",913.2 kg/m3
same,mass density,"313.15 K, x2 = 0.1202",916.6 kg/m3
same,mass density,"313.15 K, x2 = 0.1775",919 kg/m3
same,mass density,"313.15 K, x2 = 0.311",924.5 kg/m3
same,mass density,"313.15 K, x2 = 0.3643",926.6 kg/m3
same,mass density,"313.15 K, x2 = 0.4085",928.4 kg/m3
same,mass density,"313.15 K, x2 = 0.4827",931.3 kg/m3
same,mass density,"313.15 K, x2 = 0.5248",933 kg/m3
same,mass density,"313.15 K, x2 = 0.5889",935.5 kg/m3
same,mass density,"313.15 K, x2 = 0.6474",937.8 kg/m3
same,mass density,"313.15 K, x2 = 0.7004",939.8 kg/m3
same,mass density,"313.15 K, x2 = 0.7783",942.9 kg/m3
same,mass density,"313.15 K, x2 = 0.9025",948 kg/m3
same,mass density,"313.15 K, x2 = 0.9629",950.6 kg/m3
CCOCCOCCO + CCOC(=O)OCC,mass density,"298.15 K, x2 = 0.0965",983 kg/m3
same,mass density,"298.15 K, x2 = 0.1542",982.2 kg/m3
same,mass density,"298.15 K, x2 = 0.2392",981 kg/m3
same,mass density,"298.15 K, x2 = 0.2849",980.3 kg/m3
same,mass density,"298.15 K, x2 = 0.3288",979.6 kg/m3
same,mass density,"298.15 K, x2 = 0.3515",979.3 kg/m3
same,mass density,"298.15 K, x2 = 0.3915",978.7 kg/m3
same,mass density,"298.15 K, x2 = 0.4728",977.4 kg/m3
same,mass density,"298.15 K, x2 = 0.489",977.1 kg/m3
same,mass density,"298.15 K, x2 = 0.6771",974 kg/m3
same,mass density,"298.15 K, x2 = 0.7176",973.3 kg/m3
same,mass density,"298.15 K, x2 = 0.8007",972 kg/m3
same,mass density,"298.15 K, x2 = 0.8124",971.8 kg/m3
same,mass density,"298.15 K, x2 = 0.9011",970.4 kg/m3
same,mass density,"298.15 K, x2 = 0.9506",969.8 kg/m3
same,mass density,"298.15 K, x2 = 0.9728",969.5 kg/m3
same,mass density,"313.15 K, x2 = 0.0965",969.4 kg/m3
same,mass density,"313.15 K, x2 = 0.1542",968.4 kg/m3
same,mass density,"313.15 K, x2 = 0.2391",966.8 kg/m3
same,mass density,"313.15 K, x2 = 0.3288",965.1 kg/m3
same,mass density,"313.15 K, x2 = 0.3515",964.7 kg/m3
same,mass density,"313.15 K, x2 = 0.4728",962.3 kg/m3
same,mass density,"313.15 K, x2 = 0.563",960.6 kg/m3
same,mass density,"313.15 K, x2 = 0.6131",959.5 kg/m3
same,mass density,"313.15 K, x2 = 0.6772",958.2 kg/m3
same,mass density,"313.15 K, x2 = 0.7176",957.4 kg/m3
same,mass density,"313.15 K, x2 = 0.8007",955.7 kg/m3
same,mass density,"313.15 K, x2 = 0.8124",955.5 kg/m3
same,mass density,"313.15 K, x2 = 0.9011",953.8 kg/m3
same,mass density,"313.15 K, x2 = 0.9506",953 kg/m3
same,mass density,"313.15 K, x2 = 0.9728",952.7 kg/m3
COCCO + CCOC(=O)OCC,mass density,"298.15 K, x2 = 0.2143",961.4 kg/m3
same,mass density,"298.15 K, x2 = 0.2656",961.8 kg/m3
same,mass density,"298.15 K, x2 = 0.3182",962.2 kg/m3
same,mass density,"298.15 K, x2 = 0.35",962.4 kg/m3
same,mass density,"298.15 K, x2 = 0.4686",963.3 kg/m3
same,mass density,"298.15 K, x2 = 0.5319",963.8 kg/m3
same,mass density,"298.15 K, x2 = 0.6976",965.3 kg/m3
same,mass density,"298.15 K, x2 = 0.7641",966 kg/m3
same,mass density,"298.15 K, x2 = 0.7995",966.4 kg/m3
same,mass density,"298.15 K, x2 = 0.8638",967.2 kg/m3
same,mass density,"298.15 K, x2 = 0.9122",967.9 kg/m3
same,mass density,"313.15 K, x2 = 0.0363",946.2 kg/m3
same,mass density,"313.15 K, x2 = 0.3182",946.8 kg/m3
same,mass density,"313.15 K, x2 = 0.35",946.9 kg/m3
same,mass density,"313.15 K, x2 = 0.5319",947.7 kg/m3
same,mass density,"313.15 K, x2 = 0.7641",949.4 kg/m3
same,mass density,"313.15 K, x2 = 0.7995",949.8 kg/m3
same,mass density,"313.15 K, x2 = 0.8638",950.5 kg/m3
same,mass density,"313.15 K, x2 = 0.9122",951.1 kg/m3
COCCOCCO + CCOC(=O)OCC,mass density,"298.15 K, x2 = 0.0319",1007.7 kg/m3
same,mass density,"298.15 K, x2 = 0.0651",1012.8 kg/m3 and 999.3 kg/m3
same,mass density,"298.15 K, x2 = 0.1234",1003.2 kg/m3
same,mass density,"298.15 K, x2 = 0.1799",1000.3 kg/m3
same,mass density,"298.15 K, x2 = 0.2191",998.4 kg/m3
same,mass density,"298.15 K, x2 = 0.2541",1003.8 kg/m3
same,mass density,"298.15 K, x2 = 0.2946",994.6 kg/m3
same,mass density,"298.15 K, x2 = 0.3852",990.1 kg/m3
same,mass density,"298.15 K, x2 = 0.4116",988.8 kg/m3
same,mass density,"298.15 K, x2 = 0.4555",986.6 kg/m3
same,mass density,"298.15 K, x2 = 0.5699",980.9 kg/m3
same,mass density,"298.15 K, x2 = 0.6378",977.6 kg/m3
same,mass density,"298.15 K, x2 = 0.7767",965.3 kg/m3
same,mass density,"298.15 K, x2 = 0.8898",965.5 kg/m3
same,mass density,"298.15 K, x2 = 0.931",963.7 kg/m3
